Reference: patent US10501444B2, “Inhibitors of influenza virus replication, application methods and uses thereof” (SUNSHINE LAKE PHARMA CO., LTD., priority 2016, dated 2019)

Legend:
in vivo = settings: SD, rat
[1] = SD, rat, in vivo, po, 5 mg/kg
virus H1N1 A/Weiss/43 = experiment: microbe, parasite or virus in culture; assay type: cell-based; settings: Influenza A virus, H1N1, 120 h; MDCK cells, CPE inhibition, 5 days, CCK-8; read-out: EC50 (nM), inhibitory activities against influenza virus (A/Weiss/43(H1N1))

Row | SMILES | AUC(0-inf) (in vivo; po, 5 mg/kg) [ng·h/mL] | AUC(0-t) (in vivo; po, 5 mg/kg) [ng·h/mL] | Cmax (in vivo; po, 5 mg/kg) [ng/mL] | Tmax (in vivo; po, 5 mg/kg) [h] | half-life (in vivo; po, 5 mg/kg) [h] | F [1] [%] | EC50 (virus H1N1 A/Weiss/43) [nM] | Vd (in vivo; iv, 1 mg/kg) [L/kg] | also measured
1 | O=C(O)C1C2CCC(CC2)C1Nc1cc(-c2ccccc2)nc(-c2c[nH]c3c(F)cc(F)cc23)n1 (racemic) [Example 1, (+/−)-trans-3-((2-(5,7-difluoro-1H-indol-3-yl)-6-phenylpyrimidin-4-yl)amino)bicyclo[2.2.2]octane-2-carboxylic Acid] | 10600 | 10500 | 2910 | 1.5 | 1.37 | 72.1 | 5.5 | – | –
2 | O=C(O)C1C2CCC(CC2)C1Nc1cc(-c2ccco2)nc(-c2c[nH]c3c(F)cc(F)cc23)n1 (racemic) [Example 52, (+/−)-trans-3-((2-(5,7-difluoro-1H-indol-3-yl)-6-(furan-2-yl)pyrimidin-4-yl)amino)bicyclo[2.2.2]octane-2-carboxylic Acid] | – | – | – | – | – | – | 1.21 | 0.229 | –
3 | O=C(O)C1C2CCC(CC2)C1Nc1nc(-c2c[nH]c3c(F)cc(F)cc23)nc2c1ccn2CCF (racemic) [Example 34, (+/−)-trans-3-((2-(5,7-difluoro-1H-indol-3-yl)-7-(2-fluoroethyl)-7H-pyrrolo[2,3-d]pyrimidin-4-yl)amino)bicyclo[2.2.2]octane-2-carboxylic Acid] | 19700 | 19600 | 8880 | 0.5 | 1.38 | 100.2 | 2.19 | 0.515 | AUC(0-inf) (in vivo; iv, 1 mg/kg): 3940 ng·h/mL; AUC(0-t) (in vivo; iv, 1 mg/kg): 3920 ng·h/mL; Cmax (in vivo; iv, 1 mg/kg): 5400 ng/mL; Tmax (in vivo; iv, 1 mg/kg): 0.083 h; clearance (in vivo; iv, 1 mg/kg): 4.23 mL/min/kg; half-life (in vivo; iv, 1 mg/kg): 1.35 h
4 | O=C(O)C1C2CCC(CC2)C1Nc1nc(-c2c[nH]c3c(F)cc(F)cc23)nc(-c2ccco2)c1F (racemic) [Example 56, (+/−)-trans-3-((2-(5,7-difluoro-1H-indol-3-yl)-5-fluoro-6-(furan-2-yl)pyrimidin-4-yl)amino)bicyclo[2.2.2]octane-2-carboxylic Acid] | – | – | – | – | – | – | 1.05 | – | –
5 | Cn1ncc2c(NC3C4CCC(CC4)C3C(=O)O)nc(-c3c[nH]c4c(F)cc(F)cc34)nc21 (racemic) [Example 31, (+/−)-trans-3-((6-(5,7-difluoro-1H-indol-3-yl)-1-methyl-1H-pyrazolo[3,4-d]pyrimidin-4-yl)amino)bicyclo[2.2.2]octane-2-carboxylic Acid] | – | – | – | – | – | – | 17.1 | – | –
6 | Cn1ccc2c(NC3C4CCC(CC4)C3C(=O)O)nc(-c3c[nH]c4c(F)cc(F)cc34)nc21 (racemic) [Example 9, (+/−)-trans-3-((2-(5,7-difluoro-1H-indol-3-yl)-7-methyl-7H-pyrrolo[2,3-d]pyrimidin-4-yl)amino)bicyclo[2.2.2]octane-2-carboxylic Acid] | – | – | – | – | – | – | 2.24 | – | –
7 | O=C(O)C1C2CCC(CC2)C1Nc1nc(-c2c[nH]c3c(F)cc(F)cc23)nc2c(F)cccc12 (racemic) [Example 10, (+/−)-trans-3-((2-(5,7-difluoro-1H-indol-3-yl)-8-fluoroquinazolin-4-yl)amino)bicyclo[2.2.2]octane-2-carboxylic Acid] | – | – | – | – | – | – | 27.9 | – | –
8 | N#Cc1ccc(-c2cc(NC3C4CCC(CC4)C3C(=O)O)nc(-c3c[nH]c4c(F)cc(F)cc34)n2)cc1 (racemic) [Example 6, (+/−)-trans-3-((6-(4-cyanophenyl)-2-(5,7-difluoro-1H-indol-3-yl)pyrimidin-4-yl)amino)bicyclo[2.2.2]octane-2-carboxylic Acid] | – | – | – | – | – | – | 6.01 | – | –
9 | O=C(O)C1C2CCC(CC2)C1Nc1cc(C#Cc2ccccc2)nc(-c2c[nH]c3c(F)cc(F)cc23)n1 (racemic) [Example 24, (+/−)-trans-3-((2-(5,7-difluoro-1H-indol-3-yl)-6-(phenylethynyl)pyrimidin-4-yl)amino)bicyclo[2.2.2]octane-2-carboxylic Acid] | – | – | – | – | – | – | 11 | – | –
10 | CC(C)n1ccc2c(NC3C4CCC(CC4)C3C(=O)O)nc(-c3c[nH]c4c(F)cc(F)cc34)nc21 (racemic) [Example 35, (+/−)-trans-3-((2-(5,7-difluoro-1H-indol-3-yl)-7-isopropyl-7H-pyrrolo[2,3-d]pyrimidin-4-yl)amino)bicyclo[2.2.2]octane-2-carboxylic Acid] | 24000 | 24000 | 9920 | 0.5 | 1.21 | 94.6 | 4.04 | 0.264 | AUC(0-inf) (in vivo; iv, 1 mg/kg): 5080 ng·h/mL; AUC(0-t) (in vivo; iv, 1 mg/kg): 5050 ng·h/mL; Cmax (in vivo; iv, 1 mg/kg): 6080 ng/mL; Tmax (in vivo; iv, 1 mg/kg): 0.083 h; clearance (in vivo; iv, 1 mg/kg): 3.3 mL/min/kg; half-life (in vivo; iv, 1 mg/kg): 1.23 h
